# Laboratory results reported in the supplement of paper PMC10441789.
# This is one part of the list. Antibody binding of pooled human sera (four to six donors per pool; dilution not stated) to peptides of the Trypanosoma cruzi antigen TSSA on microarrays. Quantile-normalised fluorescence in arbitrary units, mean of duplicate arrays; higher = more binding. No active / inactive call. The uninfected pools are read here as the healthy donors of the same country. The strongest signals lie near the top of the scale (about 60,000).
# System: pooled sera of uninfected people, Colombia
# Assay: antibody binding signal (normalised fluorescence) (arbitrary fluorescence units); higher = stronger serum antibody binding to peptide
# Method: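 Microarray of 15-residue peptides over residues 30-55 of Trypanosoma cruzi TSSAII, each with 1 to 10 substitutions at naturally variable positions, probed with one serum pool per country.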
row,Sequence,antibody binding signal
1,KENKPAAGGTPSQPG,217
2,PSGTDKKAATGETPS,632
3,GKENKAAAGGAPSQP,105
4,SGKDNKTATGETPSP,353
5,TPPSGTENKAAAGGA,782
6,ISTPPSGTDNKPAAG,408
7,NKTATGGAPSQPGAS,391
8,TEKKAAAGETPSPPG,191
9,KPATGETPSPPGASS,163
10,SGTDKKPATGETPSP,340
11,DNKTAAGEAPSQSGA,167
12,KKTATGGAPSQSGAS,87.6
13,KDNKTATGEAPSPPG,268
14,GKENKTAAGGTPSQP,116
15,TEKKAAAGGTPSQSG,169
16,NKTATGGAPSQSGAS,247
17,TDKKPAAGGAPSPSG,106
18,NKPAAGETPSQPGAS,734
19,STPPSGKENKPAAGE,1030
20,PPSGKEKKAAAGGAP,267

row,Sequence,antibody binding signal
1,TPPSGTENKAATGGT,384
2,TENKAATGEAPSQPG,114
3,KKPATGETPSQSGAS,139
4,SGKENKAAAGGTPSQ,313
5,NKTAAGGTPSPSGAS,409
6,KKTATGGTPSPSGAS,182
7,TDNKAATGGAPSPPG,197
8,SGTEKKPATGGTPSP,310
9,DKKPAAGETPSPPGA,165
10,TPPSGKDKKTATGEA,194
11,NKPAAGEAPSPPGAS,715
12,TEKKAATGGTPSPPG,1020
13,GTDNKAATGETPSQS,124
14,GKDNKAATGGTPSPP,170
15,KEKKPATGEAPSQPG,166
16,SGKENKPATGGTPSQ,209
17,EKKTATGGAPSQSGA,130
18,PSGTENKPAAGETPS,512
19,SGKENKPATGGTPSP,358
20,SGKEKKPAAGEAPSQ,130
